# PubChem BioAssay AID504832 (National Center for Advancing Translational Sciences (NCATS), 2011)
# Among all 310,000 compounds or so, about 18,000 (5.8%) were called active. The inconclusive results got no clear call from the source; some entries with a clear call stand among them for comparison. Calls follow the shape of the dose curve; as a rule, active = well fitted inhibition curve with a large enough effect; inconclusive = small, poorly fitted or top-dose-only effect, or another doubt; inactive = no such curve, though single readings can be large or run the other way. Potencies of inconclusive entries are left out as doubtful fits.
# Experiment: Primary qHTS for delayed death inhibitors of the malarial parasite plastid, 48 hour incubation
# Settings: P. falciparum luciferase growth in erythrocytes; series mostly up to 28.7 µM; activity change, negative = inhibition: at the top concentration
# Method in brief: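 Luciferase-expressing P. falciparum in infected erythrocytes (2% hematocrit, 0.1% parasitemia final) in RPMI 1640/0.5% Albumax were exposed to compound for 48 hours at 37 C, 5% CO2; growth read as luminescence.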
# % is scaled to controls: 0 for no effect and ±100 for the full control effect; potency is read from the fitted curve at half-maximal effect; tags tell the direction and shape of the fitted curve.
Structure (SMILES),"activity change, negative = inhibition",Potency
O=C(NNC(=O)C12CC3CC(CC(O)(C3)C1)C2)c1ccccc1O,inactive: 10.4%,
COC(CNC(=O)c1ccc2c(c1)ncn2-c1cccc(F)c1)OC,inactive: 0.0479%,
COc1ccc(OC)c(NC(=O)CSc2nnc3ccc(-c4ccccn4)nn23)c1,inactive: 22.4%,
Cc1c(NCc2cccnc2)cccc1C(=O)O,,"inconclusive [inhibitor, full curve, poor fit]"
CCCC(C)NC(=O)COC(=O)c1cccc(NS(C)(=O)=O)c1 (stereo unspecified),inactive: 68.3%,
O=C(c1ccc(S(=O)(=O)c2cccc(Cl)c2)c([N+](=O)[O-])c1)N1CCN(Cc2ccccc2)CC1,,"inconclusive [inhibitor, partial curve, poor fit]"
Cc1ccc(S(=O)(=O)N2CCCCC2C(=O)NCc2ccco2)cc1 (stereo unspecified),,"inconclusive [inhibitor, partial curve, poor fit]"
Cc1ccc(S(=O)(=O)N2CCC(C(=O)O)CC2)cc1,inactive: -1.37%,
COC(=O)c1cccc(NC(=O)c2cnoc2C)c1,inactive: 35.4%,
CN(C)C(=O)c1cc([N+](=O)[O-])cc([N+](=O)[O-])c1N(C)C,,"inconclusive [inhibitor, partial curve, poor fit]"
Oc1ccc(/C=N/N=C/c2ccc(O)c(O)c2)cc1O,,"inconclusive [inhibitor, partial curve]"
COc1ccc(C2=NS(=O)(=O)N(C)C(C(=O)N3C(C)CCCC3C)=C2)cc1 (stereo unspecified),,"inconclusive [inhibitor, full curve, poor fit]"
O=C(NCc1ccc2c(c1)OCO2)C1CCN(Cc2cnn(-c3ccccc3)c2-n2cccc2)CC1,,"inconclusive [inhibitor, single point]"
O=C(/C=C/c1ccc2c(c1)OCO2)Nc1nc2ccc(F)cc2s1,inactive: 81.2%,
C=CCN1C(=O)c2ccc(C(=O)N3CCC(C(N)=O)CC3)cc2C1=O,inactive: 8.45%,
COc1ccc(C(=O)Nc2ccccc2C(=O)N/N=C/c2ccc(O)c(OC)c2)cc1,,"inconclusive [inhibitor, partial curve]"
O=S(=O)(Nc1ccc(Br)cn1)c1ccc(Cl)s1,inactive: 7.54%,
O=C(CCSc1nnc(-c2ccccc2)o1)N1CCOCC1,inactive: 26.1%,
COc1cccc(N2CCN(C(=O)CN(c3cc(C)cc(C)c3)S(=O)(=O)c3c(C)noc3C)CC2)c1,,"inconclusive [inhibitor, single point]"
O=C(COC(=O)COc1ccc(Cl)cc1)Nc1ccc(N2CCOCC2)cc1,,"inconclusive [inhibitor, single point]"
CCCC[C@]12Cc3cc(C#N)ccc3C(O1)c1c(cc(C)n(-c3ccccc3)c1=O)O2,,"inconclusive [inhibitor, single point]"
O=C(OC1C[C@@H]2CC3C[C@H](C1)N2CC3=O)c1c[nH]c2ccccc12 (stereo partly specified),,active: 13.5 µM
COc1ccc(CCNS(=O)(=O)CCNC(=O)c2ccc3c(c2)OCO3)cc1OC,inactive: 36.4%,
O=C(CSc1ccccc1)NC1=NCCS1,inactive: 124%,

Structure (SMILES),"activity change, negative = inhibition",Potency
CCOC(=O)N1CCC(n2c(SCC(=O)NCCC3=CCCCC3)nc3ccccc3c2=O)CC1,,active: 9.28 µM
CCC(C)(C)NC(=O)C(C(C)C)N(CC1CCCO1)C(=O)CNS(=O)(=O)c1ccccc1 (stereo unspecified),,"inconclusive [inhibitor, partial curve, poor fit]"
Cc1[nH]n(-c2ccccc2)c(=O)c1-c1ccccc1,,"inconclusive [inhibitor, single point]"
O=C(CNC(=O)c1sc2ccccc2c1Cl)NCc1cccc(C(F)(F)F)c1,,"inconclusive [inhibitor, partial curve, poor fit]"
CC1=C(C(=O)OCC(C)C)[C@]23C(=O)c4ccccc4[C@@]2(O1)OC(N)=C3C#N,,"inconclusive [inhibitor, single point]"
O=C(O)c1cccc(CN2C(=O)CSC2=O)c1,inactive: 32.4%,
Cn1c(=O)cc(OCC(=O)NCCCN2CCN(Cc3ccccc3)CC2)c2ccccc21,,"inconclusive [inhibitor, single point]"
c1cncc(-c2nc(NCc3ccco3)c3ccccc3n2)c1,,active: 11.7 µM
N#Cc1c(-n2cccc2)cccc1-n1cccc1,inactive: -5.92%,
Cc1ccc(-c2nn(C(C)(C)C)c3ncnc(N)c23)cc1,,"inconclusive [inhibitor, single point]"
COc1ccc2oc(C(=O)c3ccccc3)c(NC(=O)CN3CCN(C)CC3)c2c1,,"inconclusive [inhibitor, partial curve, poor fit]"
Cc1cc(C)cc(NC(=S)N(Cc2cccc(Br)c2)CC2CCC(C(=O)O)CC2)c1 (stereo unspecified),,"inconclusive [inhibitor, single point]"
Cc1ccc(CN(C)C(=O)CN2C(=O)NC(c3ccccc3)(c3ccccc3)C2=O)c(C)c1,,active: 13.1 µM
CC1(C)Cc2c(cnn2-c2ccccc2)C(NC(=O)C2(C(N)=O)CC2)C1 (stereo unspecified),,active: 9.28 µM
O=C(c1ccccc1)N1CCN(C(=O)c2ccccc2)CC1,inactive: 31.2%,
CC(=O)Nc1ccc(C(=O)OCC(=O)c2ccc(S(=O)(=O)N3CCCCC3)cc2)cc1,,"inconclusive [inhibitor, partial curve]"
COc1ccc(C(=O)N/N=C/c2cc(Br)ccc2O)cc1OC,,"inconclusive [inhibitor, partial curve]"
COc1cc([N+](=O)[O-])cc(/C=N/NC(=O)c2cncc(Br)c2)c1O,,"inconclusive [inhibitor, partial curve, poor fit]"
Nc1nonc1-n1nnc(C(=O)N/N=C/c2ccc3c(c2)OCO3)c1CSc1ccccc1,inactive: 28.8%,
CC(C)(C)SCCNC(=O)CSCc1ccc([N+](=O)[O-])cc1,,"inconclusive [inhibitor, single point]"
Cc1c(C)n2c(SCC(=O)N3CC(C)OC(C)C3)nnc2[nH]c1=O (stereo unspecified),,"inconclusive [inhibitor, partial curve]"
Cc1ccc(S(=O)(=O)N(CC(O)CN2CCOCC2)c2cc(Cl)ccc2Cl)cc1 (stereo unspecified),,"inconclusive [inhibitor, single point]"
COc1ccccc1C(=O)OCCNC(=O)Cn1cnc2c1c(=O)n(C)c(=O)n2C,inactive: 23.7%,
C/C(CC(=O)NCc1ccc(Cl)cc1)=N\NC(=O)COc1ccc(C)cc1Br,inactive: 30.4%,

Structure (SMILES),"activity change, negative = inhibition",Potency
CCOCCCn1c(SCC(=O)Nc2cccc(OC)c2)nc2ccccc2c1=O,,"inconclusive [inhibitor, single point]"
O=C(O)c1ccc2c(=O)[nH]c(CN3CCOCC3)nc2c1,inactive: 3.51%,
CNC(=O)c1c(NC(=O)CCS(=O)(=O)c2ccccc2)sc2c1CCN(C(=O)OC)C2,,"inconclusive [inhibitor, full curve, poor fit]"
CN(C)C/C=C(/c1ccc(Br)cc1)c1cccnc1,,active: 12 µM
COc1ccc(NC(=O)COC(=O)C2CC(=O)N(CCc3ccc(OC)c(OC)c3)C2)cc1Cl (stereo unspecified),,"inconclusive [inhibitor, single point]"
CCN(CC)c1nc(N2CCN(C)CC2)nc2ccccc12,,"inconclusive [inhibitor, partial curve]"
O=C(Nc1ccc(N2CCN(C(=O)c3ccccc3)CC2)cc1)c1ccc2c(c1)OCCO2,,"inconclusive [inhibitor, single point]"
CN1CCN(C(=S)NC(=O)c2ccccc2Cl)CC1,inactive: 0%,
CC1CC(C)CN(C(=O)c2nn(C)c3c2CSc2ccccc2-3)C1 (stereo unspecified),,"inconclusive [inhibitor, single point]"
CCO[C@@H]1OC(C(=O)N2CCN(Cc3ccccc3)CC2)=C[C@H](c2coc3ccccc3c2=O)[C@H]1CCCO,,"inconclusive [inhibitor, partial curve, poor fit]"
Cc1c(O)ccc2c(CN3CCOCC3)cc(=O)oc12,inactive: 13.3%,
Cc1c(NC(=O)C(C)OC(=O)CCc2ccccc2)c(=O)n(-c2ccccc2)n1C (stereo unspecified),,"inconclusive [inhibitor, single point]"
Cc1cc(N)ccc1-n1c(C)ccc1C,,active: 7.38 µM
O=C(NNc1ccnc2cc(Cl)ccc12)C1CCCCC1,,active: 1.65 µM
C/C(=N\N1CCCCCC1)c1c(O)n(-c2ccc(C)cc2)c(=O)[nH]c1=O,,"inconclusive [inhibitor, partial curve, poor fit]"
NC(=O)NC(CC(=O)Nc1cccnc1)c1cccc(Br)c1 (stereo unspecified),,"inconclusive [inhibitor, single point]"
CNc1oc(Cc2ccccc2)nc1S(=O)(=O)c1ccc(Cl)cc1,inactive: -7.68%,
CCOc1ccc(NS(=O)(=O)c2ccc(C(=O)N3CCCC(C)C3)cc2)cc1 (stereo unspecified),,"inconclusive [inhibitor, single point]"
CCn1nccc1C(=O)Nc1ccc(C(=O)OC(C)C)cc1,inactive: 25.8%,
Cc1nnc(SCC2=C(C(=O)O)N3C(=O)C(NC(=O)Cn4nc(C(F)F)c(Cl)c4C)C3SC2)s1 (stereo unspecified),inactive: -8.83%,
Cc1nc(NC(C)c2ccccc2)sc1C(=O)Nc1ccccc1 (stereo unspecified),,"inconclusive [inhibitor, full curve, poor fit]"
O=C(Nc1cccc(S(=O)(=O)Nc2ccccc2Cl)c1)c1ccc(Cl)nc1,inactive: 1.74%,
Cc1ccc(NC(=O)CN(C)C(=O)CSc2nc3ccccc3c(=O)n2Cc2ccco2)cc1,,"inconclusive [inhibitor, partial curve, poor fit]"
